Reference: article PMC6919601, “Identification of Plasmodium dipeptidyl aminopeptidase allosteric inhibitors by high throughput screening” (PLoS ONE, 2019)
Screen size: about 110,000 compounds; about 230 (0.21%) showed an effect of 50% or more. The list shows a part of the results.

Target: DPAP1 (Plasmodium falciparum, UniProt Q8IIJ9)
Experiment: primary screen, percent inhibition; read by cleavage of a fluorogenic dipeptide substrate; higher = more effect of the substance
Parameters: species or system P. falciparum D10 trophozoite lysates; single well
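Further: 30 min substrate incubation versus DMSO and 10 µM JCP410 controls.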

Sequence of DPAP1 (Q8IIJ9 whole entry, looked up): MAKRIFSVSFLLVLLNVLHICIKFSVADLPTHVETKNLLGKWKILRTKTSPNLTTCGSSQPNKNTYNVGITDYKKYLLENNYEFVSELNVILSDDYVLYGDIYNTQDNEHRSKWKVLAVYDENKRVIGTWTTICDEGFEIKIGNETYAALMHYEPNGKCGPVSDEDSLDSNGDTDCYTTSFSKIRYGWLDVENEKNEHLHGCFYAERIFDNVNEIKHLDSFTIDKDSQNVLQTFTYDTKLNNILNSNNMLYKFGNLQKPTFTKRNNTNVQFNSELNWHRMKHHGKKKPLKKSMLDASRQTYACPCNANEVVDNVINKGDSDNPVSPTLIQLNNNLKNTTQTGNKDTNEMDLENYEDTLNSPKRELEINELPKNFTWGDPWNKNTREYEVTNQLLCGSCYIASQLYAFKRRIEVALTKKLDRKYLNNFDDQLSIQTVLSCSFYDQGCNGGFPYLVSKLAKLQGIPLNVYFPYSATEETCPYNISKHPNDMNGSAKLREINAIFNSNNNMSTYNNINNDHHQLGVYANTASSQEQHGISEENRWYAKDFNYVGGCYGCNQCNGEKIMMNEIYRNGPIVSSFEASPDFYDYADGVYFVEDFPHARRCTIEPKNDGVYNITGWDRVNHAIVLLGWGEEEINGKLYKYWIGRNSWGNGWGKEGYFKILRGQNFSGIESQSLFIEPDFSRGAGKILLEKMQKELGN

Structure (SMILES) | % Inhibition @ 10 uM [%]
N#Cc1c(NC(=O)CSCCO)sc2c1CCCC2 | -5.58
CCN(CC)CC#CC(C)(O)C(C)(C)C (centres unmarked) | 0.912
C=CCNc1oc(/C=C/c2ccc(F)cc2)nc1C#N | -4.39
O=C(Nc1nnc(S(=O)(=O)N2CCCCC2)s1)C12C[C@H]3C[C@@H](C1)C[C@@H](C2)C3 | 1.68
Cc1ccc(C)n1-c1cccc(NC(=O)c2cccc(-n3c(C)ccc3C)c2)c1 | 5.32
O=C(/C=C/c1cccs1)Nc1c(C(=O)N2CCC(N3CCCCC3)CC2)oc2ccccc12 | 4.11
Cc1n[nH]c(SCCCSc2n[nH]c(C)n2)n1 | 3.87
COc1cc(-c2nnc3sc(COc4ccccc4C)nn23)cc(OC)c1OC | 4.28
CC(=O)NC(NC(C)=O)c1ccc(Br)cc1 | 10.1
Cc1ccc2c(CNCCC3=CCCCC3)c(C(=O)O)n(Cc3ccc(F)cc3)c2c1 | 2.56
CC(C)CCOC(=O)c1[nH]nc([N+](=O)[O-])c1[N+](=O)[O-] | 1.08
CCN(CC)CCCCCCOc1ccccc1 | -0.546
CCN(CC)CCNC(=O)C1(c2ccccc2)CCOCC1 | 2.03
COc1ccc(-c2nnc3sc(NC(=O)c4cc(OC)c(OC)c(OC)c4)nn23)cc1OC | 0.813
CCN(CC)C(=O)CN(c1ccc(C)cc1)S(=O)(=O)c1ccc(C)cc1 | 8.29
CN(C1CCCCC1)S(=O)(=O)c1ccc(S(=O)(=O)N(Cc2ccc(F)cc2)C2CC2)cc1 | 0.401
O=C1CCC(c2ccccc2)(C2CCN(Cc3ccccc3)CC2)C(=O)N1 (centres unmarked) | -7.15
Cc1ccc2[nH]c(SCC(=O)N3CCOCC3)nc2c1C | 6.05
CCc1ccc(CNC(=O)CCCn2nc(C)c3c(C)n(-c4ccc(C)cc4)nc3c2=O)cc1 | -9.59
O=C(Nc1ccc(Cl)c([N+](=O)[O-])c1)c1ccc(-c2ccccc2)cc1 | 4.42
CC(CNC(=O)CCCc1nnc2n(C)c(=O)c3sccc3n12)c1ccccc1 (centres unmarked) | 3.98
CCc1ccc(CNC(=O)c2cc3cc4cc(OC)ccc4nc3o2)cc1 | 1.9
N#C/C(=C/c1ccc(-c2ccccc2)cc1)c1nc(-c2ccc(Cl)cc2)cs1 | -8.04
CCOc1ccc(N2C(=O)NC(=O)/C(=C\c3ccc(C)o3)C2=O)cc1 | 4.65
O=C(O)CCCN1C(=O)C2C3CC(C2C1=O)C1C(c2ccc(F)cc2)c2sc(O)nc2SC31 (centres unmarked) | 3.24

Structure (SMILES) | % Inhibition @ 10 uM [%]
CC(NC(=O)/C(=C\c1ccco1)NC(=O)c1ccc(Br)cc1)C(=O)O (centres unmarked) | 1.31
Cc1ccc(-c2nc(CS(=O)CC(=O)NCCN3CCCCC3C)c(C)o2)cc1 (centres unmarked) | 2.37
O=C([C@H](Cc1ccccc1)N1Cc2ccccc2C1=O)N1CCN(c2ccccn2)CC1 | -2.25
Cc1cccn2c(=O)c3cc(C(=O)NCc4ccccn4)n(C)c3nc12 | -0.659
Cc1c(C(=O)Nc2sc3c(c2C(=O)NCc2ccco2)CCCC3)oc2ccccc12 | -3.63
CCCCNc1cc(C)oc(=O)c1C(=O)CCC | -10.1
Cc1nc(/N=C(\N)NC(=O)CCN2C(=O)c3ccccc3C2=O)nc2ccccc12 | -0.828
O=C(NCc1ccc2c(c1)OCO2)C1CCCCC1 | 1.13
Cc1ccc(-c2cc3c4ccc(C)n4ccn3c2)cc1 | 0.00178
Cc1cccc(OCC(=O)Nc2cccc(C)c2C)c1 | -9
CC(=O)c1cc(-c2ccc(C(=O)N[C@@H](CC(C)C)C(=O)NCC#N)cc2)c(Cl)s1 | -6.98
CCCCN(C)C(=O)C1c2cc(OC)c(OC)cc2C(=O)N2CCc3ccccc3C12 (centres unmarked) | 0.208
c1cnc2c(SCc3cn4ccccc4n3)cccc2c1 | 6.08
CCn1c2ccccc2c2cc(NC(=O)c3cccc(C)c3)ccc21 | 1.57
COc1ccc(CN2C(=O)c3cccnc3C2=O)cc1S(=O)(=O)N(C)Cc1ccccc1 | 8.5
CCOC(=O)N1CCC(NCCC2=CCCCC2)CC1 | -1.81
CCOC(=O)c1[nH]c(C)c(C(=O)CCC2CCCC2)c1C | 5.32
CCCOc1ccc(C(=O)CCNC(Cc2c[nH]c3ccccc23)C(=O)O)cc1 (centres unmarked) | 81.9
O=C1OCCN/C1=C\C(=O)c1ccc(Cl)cc1 | 0.878
CS(=O)(=O)c1ncc(Cl)c(C(=O)Nc2sc3c(c2C(=O)NCC2CCCO2)CCCC3)n1 (centres unmarked) | -8.43
COc1ccccc1-c1c(C)nn2c(N3CCN(Cc4ccccc4)CC3)cc(C)nc12 | -3.21
COc1cccc2c1cc1c(=O)n(CC(=O)NCCCc3ccccc3)nc(C)n12 | -3.47
Cc1ccnc(NS(=O)(=O)Cc2ccccc2)c1 | 3.42
Cc1c(C)n(C)c2ccc(C(=O)N3CCCCC3)cc12 | -3.53
CCOC(=O)c1cc(C)n(-c2ccc(C(=O)N3CCCCCC3)cc2)c1C | 0.434

Structure (SMILES) | % Inhibition @ 10 uM [%]
COc1ccc(CCNC(=O)c2nc(Cn3nc(C)c(Br)c3C)no2)cc1OC | -0.0678
Cc1cc(C(N)=O)c2cc(Br)ccc2n1 | 0.215
O=C(CN(Cc1ccccc1)S(=O)(=O)c1ccccc1)N1CCOCC1 | 1.84
COc1cc(CN2CCCN(C)CC2)cc2c1OCO2 | -6.27
Cc1cccc(C)c1NC(=O)C(NC(=O)CN1C(=O)c2ccccc2C1=O)c1ccccc1 (centres unmarked) | -8.3
C=CCOc1ccc(CNC2CCCCC2)cc1OC | -1.63
CCc1ccc(-n2nnc(-c3nsc(NC(=O)c4ccc(C)cc4)n3)c2C)cc1 | -7.04
COc1ccc(OC)c(CNCc2c(C(=O)O)n(Cc3ccccc3F)c3cc(OC)ccc23)c1 | -1.38
COC(=O)c1ccc(NC(=O)c2ccc(-c3ccccc3)cc2)cc1 | -4.61
CCCCOC(=O)CCNc1nnc(O)nc1O | -11.4
CC(=O)N(C(C)=O)c1c(N2CCCC2)c2ccccc2oc1=O | 12.6
COc1cccc(-c2nnc3c4c5c(sc4ncn23)CCCC5)c1 | -0.85
COc1cc(Cc2nnc(C(=O)NC3CCCCCC3)o2)cc(OC)c1OC | -3.34
CCN(CC)CCN1C(=O)C(O)=C(C(=O)c2ccc(F)cc2)C1c1ccc(C)o1 (centres unmarked) | -17.3
CSCCC(NC(=O)c1ccccc1)c1noc(-c2ccc(C)cc2)n1 (centres unmarked) | -6.91
CCCS(=O)(=O)c1nc(S(=O)(=O)c2ccc(C)cc2)c(N2CCCC2)s1 | -2.25
COc1cc(-c2nnc3n(Cc4ccc(C)cc4)c(=O)c4ccccc4n23)cc(OC)c1OC | 0.00665
CN(CCC#N)C(CNS(=O)(=O)c1ccc(Cl)cc1)c1ccccc1 (centres unmarked) | -2.4
CCCCN(C)CCNC(=O)Cn1ncc2c1-c1ccccc1OC2 | -6.07
COc1ccc(C2=NOC(C(=O)Nc3cccnc3Cl)C2)cc1 (centres unmarked) | 3.2
CCOc1ccc(C2CC(c3ccccc3OC(F)F)n3nnnc3N2)cc1Cl (centres unmarked) | 4.86
O=C(O)CCC(=O)NCCc1cccc(Cl)c1 | 2.32
Cc1ccc2c(CNC3CCC(C)CC3)c(C(=O)O)n(Cc3ccccc3F)c2c1 (centres unmarked) | -3.12
O=C(CSc1nc(O)c2c3c(sc2n1)CCCC3)NCCCO | -4.76
COc1ccc(OCC(=O)Nc2ccc(S(=O)(=O)NC3CCCCC3)cc2)cc1 | -4.01

Structure (SMILES) | % Inhibition @ 10 uM [%]
Cc1cccn2c(=O)c3cc(C#N)c(=N)n(Cc4cccnc4)c3nc12 | 1.97
C#CCn1c(-c2ccccc2)nc2ccccc21 | 4.3
O=C(Nc1ccccc1NC(=O)c1ccc(Cl)cc1)c1ccc(Cl)cc1 | 3.01
O=C(O)c1c(-c2ccccc2)nn(-c2ccccc2)c1C(=O)O | -5.5
Cc1ccc(CN2C[C@@H]3C[C@H](C2)c2cccc(=O)n2C3)o1 | -0.342
O=C(Nc1c(-c2cccs2)nc2ccccn12)c1cccc(C(F)(F)F)c1 | -2.74
Cn1c2ccccc2n2cc(-c3ccc(F)cc3)cc12 | -4.03
CC(=O)c1c(C)nc2c(c1-c1cccc(Br)c1)C(=O)c1ccccc1-2 | 0.583
Cc1ccc2oc(-c3ccc(C(=O)O)cc3)c(O)c(=O)c2c1 | -1.69
CC(C)C[C@H](NC(=O)OCc1ccccc1)C(=O)NC(C#N)C1CC1 (some centres unmarked) | -0.0207
Cc1ccc(-c2cc(C(=O)Nc3ccc(S(N)(=O)=O)cc3)c3ccccc3n2)cc1 | 5.85
Cn1c(=O)c(SCc2ccccc2)c(O)c2ccccc21 | 2.32
CC(Cc1ccc(F)cc1)N1CCN(c2ncccn2)CC1 (centres unmarked) | -1.41
CC1CCN(C(=O)c2ccc3c(O)nc4c(-c5ccccc5)nnn4c3c2)CC1 | -0.326
COc1ccc(-c2c(Cc3ccccc3)nn3c(O)c(Cl)c(C)nc23)cc1 | -1.99
COc1ccc(/C=C2/SC(Nc3ccc(C)cc3)=NC2=O)cc1OC | -1.49
CNC(=O)c1ccc(C)c([N+](=O)[O-])c1 | -3.26
Cc1nn(-c2ccccc2)c(-n2cccc2)c1C(=O)N1CCC(C(=O)NCCN2CCCC2)CC1 | 1.8
Cc1ccc(OC(C)C(=O)Nc2cccc(C)n2)cc1 (centres unmarked) | -0.643
COc1ccc(Br)cc1CNC1=NS(=O)(=O)C(c2ccc(C(C)C)cc2)=C1C | 5.42
CCN(CC)C(=O)COc1cc(C)c(Br)c(C)c1 | 0.205
COc1ccc(N2CCN(Cc3cc(Br)cs3)CC2)cc1 | 2.13
C/C(Cl)=C/Cn1c(SCC(C)C)nc2c1c(=O)[nH]c(=O)n2C | -1.08
